Source: the supplement of paper PMC12217912
The other results are listed elsewhere or left out. The full chains were built here from the parent and the listed change. Inactive controls read about 0.05.

B1: TEV protease; numbered along this chain (parent)
chain: MGESLFKGPRDYNPISSSICHLTNESDGHTTSLYGIGFGPFIITNKHLFRRNNGTLVVQSLHGVFKVKDTTTLQQHLVDGRDMIIIRMPKDFPPFPQKLKFREPQREERICLVTTNFQTKSMSSMVSDTSCTFPSGDGIFWKHWIQTKDGQCGSPLVSTRDGFIVGIHSASNFTNTNNYFTSVPKNFMELLTNQEAQQWVSGWRLNADSVLWGGHKVFMVKPEEPFQPVKEATQL

Variants of: B1
Experiment: raw area under fraction-flipped curve 0-4 h after induction (AUC4h, not background-subtracted), DNA-recorder readout of cleavage of the substrate (dimensionless); higher = more cleavage of the substrate by the protease variant
Settings: temperature: 34 °C; time window: 0-4 h after rhamnose induction
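Also: Bxb1 expression induced with 0.2% (w/v) L-rhamnose at OD600 near 0.5, cultures sampled hourly, flipped fraction per protease–substrate barcode pair counted by paired-end Illumina sequencing.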

Variant: W144T
- area with substrate ENFYFQS: 0.0694
- area with substrate ENHYFQS: 0.0461
- area with substrate ENIYFQS: 0.107
- area with substrate ENMYFQS: 0.0756
- area with substrate ENQYFQS: 0.0625
- area with substrate ENSYFQS: 0.057
- area with substrate ENVYFQS: 0.0804

Variant: M188C
- area with substrate ENFYFQS: 0.0675
- area with substrate ENHYFQS: 0.0808
- area with substrate ENIYFQS: 0.134
- area with substrate ENNYFQS: 0.0729
- area with substrate ENPYFQS: 0.0648
- area with substrate ENTYFQS: 0.05
- area with substrate ENVYFQS: 0.0745
- area with substrate ENYYFQS: 0.0705

Variant: E189D
- area with substrate ENFYFQS: 0.0587
- area with substrate ENGYFQS: 0.0468
- area with substrate ENHYFQS: 0.0701
- area with substrate ENIYFQS: 0.0945
- area with substrate ENKYFQS: 0.0782
- area with substrate ENMYFQS: 0.0646
- area with substrate ENNYFQS: 0.0478
- area with substrate ENQYFQS: 0.0667
- area with substrate ENVYFQS: 0.085
